# From article PMC4336329 (PLoS ONE, 2015)
# The campaign covered roughly 310,000 compounds. About 2,200 (0.71%) showed an effect of 50% or more. The effect is printed as a negative number. Some of the results follow.
# Biological target: human ether-à-go-go-related gene (hERG) potassium channel (human, UniProt Q12809)
# Assay: primary screen, population patch clamp on CHO cells stably expressing hERG
# human ether-à-go-go-related gene (hERG) potassium channel, sequence (Q12809 whole entry, looked up): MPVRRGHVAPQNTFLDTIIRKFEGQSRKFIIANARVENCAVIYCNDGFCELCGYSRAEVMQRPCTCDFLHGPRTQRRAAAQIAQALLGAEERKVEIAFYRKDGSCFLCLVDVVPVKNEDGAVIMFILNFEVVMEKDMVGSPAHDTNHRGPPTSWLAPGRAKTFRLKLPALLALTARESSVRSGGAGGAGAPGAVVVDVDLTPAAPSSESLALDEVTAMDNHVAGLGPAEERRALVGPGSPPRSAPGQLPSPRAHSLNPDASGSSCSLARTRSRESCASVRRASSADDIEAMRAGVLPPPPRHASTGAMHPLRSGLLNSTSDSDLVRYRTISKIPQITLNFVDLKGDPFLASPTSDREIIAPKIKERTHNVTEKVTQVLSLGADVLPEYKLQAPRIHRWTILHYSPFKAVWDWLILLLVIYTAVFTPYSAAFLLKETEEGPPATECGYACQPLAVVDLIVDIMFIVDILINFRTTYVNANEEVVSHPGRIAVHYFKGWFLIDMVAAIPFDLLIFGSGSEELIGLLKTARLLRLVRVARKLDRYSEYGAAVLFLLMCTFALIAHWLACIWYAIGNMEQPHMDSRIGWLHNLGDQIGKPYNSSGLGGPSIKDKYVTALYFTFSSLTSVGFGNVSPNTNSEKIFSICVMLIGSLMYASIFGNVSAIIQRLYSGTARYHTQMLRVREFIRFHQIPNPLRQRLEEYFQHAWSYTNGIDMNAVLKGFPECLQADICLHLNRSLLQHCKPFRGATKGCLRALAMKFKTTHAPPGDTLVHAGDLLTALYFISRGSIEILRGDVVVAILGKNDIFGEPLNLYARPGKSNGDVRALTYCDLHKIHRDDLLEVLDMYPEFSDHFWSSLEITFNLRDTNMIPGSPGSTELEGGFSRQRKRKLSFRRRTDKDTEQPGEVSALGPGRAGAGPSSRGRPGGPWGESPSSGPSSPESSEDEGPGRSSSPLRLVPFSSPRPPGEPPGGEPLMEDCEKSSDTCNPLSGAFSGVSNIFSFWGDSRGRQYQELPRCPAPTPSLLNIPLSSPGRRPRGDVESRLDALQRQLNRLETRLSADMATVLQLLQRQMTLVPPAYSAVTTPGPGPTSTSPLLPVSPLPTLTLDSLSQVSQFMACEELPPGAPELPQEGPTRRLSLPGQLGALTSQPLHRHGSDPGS
row,SMILES,"hERG current change (%, negative = inhibition) at 1uM [%]"
1,CCOCCCNCc1cn(-c2ccc(F)cc2F)nc1-c1ccccc1C,-5.46
2,C[C@@H](NC(=O)c1nc[nH]c1C(=O)N1CCN(C(=O)OC(C)(C)C)CC1)c1ccccc1,14.4
3,O=C1C=C(c2ccc3ncccc3c2)C[C@@H](c2ccc(Cl)cc2)C1,10.4
4,COc1cc(/C=N/NC(=O)c2nnn(-c3nonc3N)c2C(C)C)ccc1OCc1ccc(F)cc1,27.3
5,Cc1cc(Cl)ccc1OC(C)C(=O)Nc1ccc(S(=O)(=O)N2CCOCC2)cc1 (stereo not drawn),14.2
6,O=C(Nc1nnc(Cc2ccc([N+](=O)[O-])cc2)s1)Nc1ccccc1F,18.3
7,Cc1nc(C(=O)NCC(=O)c2ccc(Cl)cc2)c(C(F)(F)F)o1,10.8
8,O=C(COC(=O)c1cc(Cl)ccc1Cl)NCCN1C(=O)CSC1=O,7.4
9,Cc1ccc2c(CC(=O)NCc3ccco3)coc2c1C,4.61
10,CC(=O)Nc1c(O)nc(SCC(=O)Nc2c(C)cccc2C)[nH]c1=O,8.27
11,COc1cc(S(=O)(=O)NCc2ccc3c(c2)OCO3)ccc1F,8.7
12,CSc1nnc(C)c(=O)n1COC(=O)COc1ccc(Cl)cc1Cl,0.251
13,COc1ccc(C2C=C(C34CC5CC(CC(C5)C3)C4)NC(=S)N2)cc1OC (stereo not drawn),-5.65
14,Cc1cc(C)c(S(=O)(=O)NCc2cn3ccccc3n2)c(C)c1,11.2
15,CCOc1ccc(Cl)cc1S(=O)(=O)NCc1cccnc1,-7.65
16,Clc1ccc(-c2cn3c(n2)-c2ccccc2C3)cc1Cl,14.5
17,O=C(N/N=C1\CC(c2ccccc2)Oc2ccccc21)c1ccc(O)cc1 (stereo not drawn),20.6
18,Cc1ccc(NC(=O)C(=O)c2c(-c3ccccc3)cc3ccccn23)cc1S(=O)(=O)N1CCOCC1,-9.49
19,COC(=O)C(C)Sc1ccc2nnc(-c3ccc(F)cc3)n2n1 (stereo not drawn),-6.46

row,SMILES,"hERG current change (%, negative = inhibition) at 1uM [%]"
1,Cc1ccc(C(=O)Nc2cc(=O)n(C)c(=O)n2C)o1,15.6
2,COc1ccc(-n2c(-c3ccc(Cl)cc3)c[n+]3c2CCc2ccccc2-3)cc1.[Br-],-70.3
3,Cc1cc(F)c(F)c(C(=O)NC2CC2)c1Cl,3.06
4,O=C1C=C(NC(=O)Nc2ccc(Cl)c(Cl)c2)CCC1,16.9
5,Cc1nc(Sc2cccn2C)c(C(F)(F)F)c(=O)[nH]1,-1.13
6,Cc1nn(CC(=O)NCCc2ccc(Cl)cc2)c(=O)c2cccn12,-5.96
7,COc1ccccc1-c1c(NC(=O)C(C)C)n(C)c2ccccc2c1=O,10.3
8,COc1ccc(CC(=O)c2cc(OC)c(OC)cc2CC(=O)O)cc1OC,8.05
9,C[C@@H]1[C@H](O)C[C@@]23COC(=O)C2=CCC[C@@H]3[C@@]1(C)CC/C(=C/CO)CO,13.6
10,CCCCn1c(SCC(=O)c2cc(OC)ccc2OC)nc2cc(S(N)(=O)=O)ccc21,4.9
11,CN1C(=O)S/C(=C/c2cccn2-c2cccc(C(=O)O)c2)C1=O,9.99
12,CCCCC(CC)C(=O)NCc1ccc(F)cc1 (stereo not drawn),11.4
13,O=C(N/N=C/c1ccc(O)c([N+](=O)[O-])c1)c1ccncc1,11.5
14,COc1cc2[nH]c(=O)n(CCCCCC(=O)NC3CCCC3)c(=O)c2cc1OC,13.7
15,Cc1ccc(C)c(N2CN(Cc3cccnc3)CNC2=S)c1,19.4
16,Cc1ccc(-n2c(C)nn(CC3CC3)c2=O)cc1,11.9
17,COc1ccc(N2CCCC2=N)c(OC)c1.Cl,13.9
18,O=C(CSc1nnc(COc2ccccc2)n1Cc1ccco1)c1ccc(F)cc1,-11.5
19,Cn1nnnc1SCC(=O)N1CCN(Cc2ccccc2)CC1,7.97

row,SMILES,"hERG current change (%, negative = inhibition) at 1uM [%]"
1,CC(=O)Oc1c(C(=O)c2nnc(C)o2)c(=O)n(C)c2ccccc12,4.51
2,CN(C)CCN1C(=O)C(O)=C(C(=O)c2cc3ccccc3o2)C1c1ccccn1 (stereo not drawn),-3.13
3,CS(=O)(=O)NNC(=O)c1cc2cc3ccccc3nc2s1,14.1
4,N#Cc1c(/N=C/N2CCCC2)oc(-c2ccccc2)c1-c1ccccc1,5.88
5,CCOc1ccc(C(=O)CCC(=O)O)cc1,-2.4
6,CC(NCC(O)COC1CCC(C(C)(C)C)CC1)c1ccccc1.Cl (stereo not drawn),7.27
7,Cc1c(C(=O)Nc2ccncc2)oc2c1C(=O)CC(C)(C)C2,10.5
8,O=C(c1ccccc1)c1c[nH]c(C(=O)NNc2cccc(Cl)n2)c1,19.4
9,CCOc1ccc(S(=O)(=O)N2CCC(C(=O)NCc3ccccn3)CC2)cc1Cl,14.6
10,C=CCN(CC=C)c1cnn(-c2nc3ccccc3[nH]2)c(=O)c1Cl,-22.2
11,COc1cccc(NC(=O)CN(C)C(=O)c2cccc(S(=O)(=O)N3CCN(c4ccc(F)cc4)CC3)c2)c1,-1.26
12,O=C1OC(Nc2ccc(Br)cc2F)c2ccccc21 (stereo not drawn),6.54
13,O=C(O)COc1ccccc1/C=N/n1c(C2CCCCC2)n[nH]c1=S,12
14,CC(=O)NNC(=S)NC(=O)C(c1ccccc1)c1ccccc1,8.75
15,CCN(CC)CCCN=Cc1c(O)n(CCc2ccc(F)cc2)c(=O)[nH]c1=O,-40.7
16,O=C(O)CC1(CC(=O)Nc2ccc(Br)cc2)CCCCC1,6.02
17,Cc1cc2ncn(CCC(=O)NC3CCCC3)c2cc1C,11.1
18,CSc1ccc(/C=C(\C(=O)O)c2ccc(S(=O)(=O)N3CCCCC3)s2)cc1,-40.7
19,Cc1nc(=O)c(-c2ccccc2)c(C)n1-c1ccccc1Cl,5.55
